Source: patent US20240327502A1

Experiments:
[1] = substrate: F protein of hMPV B virus (human metapneumovirus subtype B); test: cell-based or functional assay
[2] = substrate: F protein of hMPV A virus (human metapneumovirus subtype A); test: cell-based or functional assay

B1: M4B02 (antibody, V domains shown)
VH: QLQLQESGPSETLSLTCTVSGGSISSSSYYWGWIRQPPGKGLEWIGSIYYSGSTYYNPSLKSRVTISVDTSKNQFPLKLSSVTATDTAVYYCARLGVGLYEAFDIWGQGTMVTVSS
VL: [about 100 residues not spelt out]FGQGTRLEIK
PRNT IC50 [1]: > 10 µg/mL | PRNT IC50 [2]: > 10 µg/mL
